Test results from patent US20250002557A1 (SUZHOU LIGHT FERRY BIOMED, published 2025).
Values joined by “and” are separate entries in the source; they are usually repeats but may differ in a detail not shown here. Equal values may be shown once.

Experiments:
VEGF-D [1] = biological target: T1, VEGF-D (UniProt O43915 89-205, limits assumed); experiment: ELISA binding to VEGF-D, OD450
T1 construct: Bought reagent
T1 sequence (looked up): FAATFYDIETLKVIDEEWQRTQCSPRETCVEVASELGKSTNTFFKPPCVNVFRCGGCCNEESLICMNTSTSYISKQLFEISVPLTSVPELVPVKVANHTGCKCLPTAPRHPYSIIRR

VEGF-C [2] = biological target: T2, VEGF-C (UniProt P49767 112-227, limits assumed); experiment: ELISA, coated VEGF-C, anti-human Fc-HRP
T2 construct: Bought reagent
T2 sequence (looked up): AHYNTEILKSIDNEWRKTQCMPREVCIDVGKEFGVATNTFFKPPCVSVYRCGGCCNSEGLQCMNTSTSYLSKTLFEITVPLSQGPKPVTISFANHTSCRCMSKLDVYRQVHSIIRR

VEGF-A165 [3] = biological target: T3, VEGF-A165 (UniProt P15692-4 27-191); experiment: ELISA, coated VEGF-A 165, anti-human Fc-HRP
T3 construct: Bought reagent
T3 sequence (looked up): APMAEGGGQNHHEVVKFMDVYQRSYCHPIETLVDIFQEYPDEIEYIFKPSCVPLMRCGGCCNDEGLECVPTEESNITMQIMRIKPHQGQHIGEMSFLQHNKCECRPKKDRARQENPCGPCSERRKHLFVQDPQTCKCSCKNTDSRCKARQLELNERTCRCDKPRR

VEGF-A 121 [4] = biological target: T4, VEGF-A 121 (UniProt P15692-9 27-147); experiment: ELISA, coated VEGF-A 121, anti-human Fc-HRP
T4 construct: Bought reagent
T4 sequence (looked up): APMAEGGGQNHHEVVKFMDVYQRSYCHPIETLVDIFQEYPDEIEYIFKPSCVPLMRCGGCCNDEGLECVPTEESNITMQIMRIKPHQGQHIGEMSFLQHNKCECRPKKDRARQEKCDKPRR

PDGF-AA = biological target: T5, PDGF-AA (UniProt P04085 87-211); experiment: SPR, PDGF coupled to CM5 chip, trap in flow
T5 construct: Bought reagent
Text: (§1) Nevertheless, it was found in the preliminary detection experiments that PDGF family molecules (purchased from R&D Systems Inc.) were prone to produce non-specific binding in the chip, resulting in a pseudo-elevation in measured values, such that the detection could not be completed. Therefore, PDGF-AA, PDGF-AB, PDGF-BB and PDGF-CC molecules were separately loaded through a coupling reaction on a CM5 chip, followed by influx of the recombinant receptor molecules, thus effectively eliminating the impact of non-specific binding on affinity determination.

PDGF-AB = biological target: T6, PDGF-AB (UniProt P04085 87-211; P01127 82-190); experiment: SPR, PDGF coupled to CM5 chip, trap in flow
T6 construct: Bought reagent
Text: as §1

PDGF-CC = biological target: T7, PDGF-CC (UniProt Q9NRA1 235-345); experiment: SPR, PDGF coupled to CM5 chip, trap in flow
T7 construct: Bought reagent
Text: as §1

VEGF-C [5] = biological target: T2, VEGF-C; experiment: blocking ELISA, VEGF-C-His to coated VEGFR2-Fc
Procedure: (§2) During the blocking period, each recombinant receptor molecule was serially diluted from high to low concentrations, mixed evenly with 100 ng/well of VEGF-C or VEGF-D (both labeled with His-tag), allowing for incubation at room temperature for 30 minutes. […] The plates were washed with PBST, then anti-polyhistidine secondary antibody conjugated with horseradish peroxidase was added to allow for incubation and binding at room temperature for 1 hour. Then the plates were washed with PBST, TMB was added for color development, terminated with 5% hydrochloric acid solution, and finally, the OD values at 450 nm were read using a microplate reader.

VEGF-D [6] = biological target: T1, VEGF-D; experiment: blocking ELISA, VEGF-D-His to coated VEGFR2-Fc
Procedure: as §2

VEGF-C [7] = biological target: T2, VEGF-C; experiment: blocking ELISA, VEGF-C-His to coated VEGFR3-Fc
Procedure: (§3) During the blocking period, each recombinant receptor molecule was serially diluted from high to low concentrations, mixed evenly with 10 ng/well of VEGF-C or 500 ng/well of VEGF-D (both labeled with His-tag), allowing for incubation at room temperature for 30 minutes. […] The plates were washed with PBST, then TMB was added for color development, terminated with 5% hydrochloric acid solution, and finally, the OD values at 450 nm were read using a microplate reader.

VEGF-D [8] = biological target: T1, VEGF-D; experiment: blocking ELISA, VEGF-D-His to coated VEGFR3-Fc
Procedure: as §3

VEGF-A165 [9] = biological target: T3, VEGF-A165; experiment: blocking ELISA, VEGF-A 165-His to coated VEGFR2-Fc
VEGF-A 121 [10] = biological target: T4, VEGF-A 121; experiment: blocking ELISA, VEGF-A 121-His to coated VEGFR2-Fc
VEGF-C [11] = biological target: T2, VEGF-C; experiment: ELISA binding to VEGF-C, absorbance 450 nm
VEGF-A165 [12] = biological target: T3, VEGF-A165; experiment: ELISA binding to VEGF-A165, absorbance 450 nm
[13] = biological target: T8, VEGF-A (isoform not given) (UniProt P15692-4 27-191, limits assumed); experiment: SPR Biacore T200, trap captured on Protein A chip, antigen in flow
T8 construct: May be the same reagent as VEGF-A165
T8 sequence (looked up): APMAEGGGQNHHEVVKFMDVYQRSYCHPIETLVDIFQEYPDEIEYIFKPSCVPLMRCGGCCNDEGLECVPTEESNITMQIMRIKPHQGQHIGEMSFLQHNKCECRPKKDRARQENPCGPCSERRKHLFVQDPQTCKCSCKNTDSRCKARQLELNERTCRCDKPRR

VEGF-C [14] = biological target: T2, VEGF-C; experiment: as above
VEGF-D [15] = biological target: T1, VEGF-D; experiment: as above
PDGF-BB = biological target: T9, PDGF-BB (UniProt P01127 82-190); experiment: SPR, PDGF coupled to CM5 chip, trap in flow; row label printed PDGF-BR
T9 construct: Bought reagent
Text: as §1

VEGF-D [16] = biological target: T1, VEGF-D; experiment: blocking ELISA, VEGF-D-His to coated VEGFR2-Fc; row head prints uM, ng/ml row implies nM
Procedure: as §2

VEGF-C [17] = biological target: T2, VEGF-C; experiment: blocking ELISA, VEGF-C-His to coated VEGFR3-Fc; row head prints uM, ng/ml row implies nM
Procedure: as §3

VEGF-A165 [18] = biological target: T3, VEGF-A165; experiment: blocking ELISA, VEGF-A 165-His to coated VEGFR2-Fc; row head prints uM, paragraph 129 and ng/ml row give nM
VEGF-C [19] = biological target: T2, VEGF-C; experiment: blocking ELISA: His-VEGF-C premixed with sample, binding to coated VEGFR2-Fc read with anti-His-HRP
Procedure: as §2

VEGF-D [20] = biological target: T1, VEGF-D; experiment: blocking ELISA: His-VEGF-D premixed with sample, binding to coated VEGFR2-Fc read with anti-His-HRP
Procedure: as §2

VEGF-A165 [21] = biological target: T3, VEGF-A165; experiment: blocking ELISA: His-VEGF-A165 premixed with sample, binding to coated VEGFR2-Fc read with anti-His-HRP

Chain of PDGF-AB (P01127 82-190, chain 2 of 2, other chains not shown): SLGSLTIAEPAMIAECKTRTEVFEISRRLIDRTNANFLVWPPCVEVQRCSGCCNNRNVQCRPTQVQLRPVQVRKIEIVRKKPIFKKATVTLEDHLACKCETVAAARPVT
Chain of PDGF-BB (P01127 82-190): as the sequence (P01127 82-190, chain 2 of 2, other chains not shown) above
Chain of PDGF-CC (Q9NRA1 235-345): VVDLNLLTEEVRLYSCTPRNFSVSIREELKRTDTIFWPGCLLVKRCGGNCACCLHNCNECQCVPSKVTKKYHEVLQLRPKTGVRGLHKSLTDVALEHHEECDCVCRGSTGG

B1: LFV-B Recombinant receptor molecule (Fc fusion)
chain: YVQDYRSPFIASVSDQHGVVYITENKNKTVVIPCLGSISNLNVSLCARYPEKRFVPDGNRISWDSKKGFTIPSYMISYAGMVFCEAKINDESYQSIMYIVVVVGYRIYDVVLSPSHGIELSVGEKLVLNCTARTELNVGIDFNWEYPSSKHQHKKLVNRDLKTQSGSEMKKFLSTLTIDGVTRSDQGLYTCAASSGLMTKKNSTFVRVHEKGPG[here human IgG1 Fc without letters]
notes: expressed in HEK293 or CHO cells
B1 was tested, and the EC50 (VEGF-D [1]) was 10.4 nM, the EC50 (VEGF-C [2]) was 0.16 nM and 0.0162 µg/mL and the EC50 (VEGF-A165 [3]) was 0.00927 µg/mL and 0.093 nM. For the same binder, the EC50 (VEGF-A 121 [4]) was 0.311 nM and 0.0311 µg/mL, the Kd (PDGF-AA) was 26.3 nM and the koff (PDGF-AA) was 0.000153 s⁻¹. The kon (PDGF-AA) was 5790 M⁻¹ s⁻¹, the Kd (PDGF-AB) was 1.59 nM and the koff (PDGF-AB) was 0.000192 s⁻¹. For the same binder, the kon (PDGF-AB) was 121000 M⁻¹ s⁻¹, the Kd (PDGF-CC) was 22.3 nM and the EC50 (VEGF-C [5]) was 2.08 µg/mL. For the same binder, the EC50 (VEGF-D [6]) was 0.0268 µg/mL, the EC50 (VEGF-C [7]) was 0.115 µg/mL and the EC50 (VEGF-D [8]) was 0.122 µg/mL and 1.22 nM. The EC50 (VEGF-A165 [9]) was 0.467 µg/mL, the EC50 (VEGF-A 121 [10]) was 0.763 µg/mL and 7.63 nM and the EC50 (VEGF-C [11]) was 0.228 nM. The EC50 (VEGF-A165 [12]) was 0.139 nM, the Kd [13] was 0.0093 nM and the koff [13] was 0.000105 s⁻¹. The kon [13] was 1.13e+07 M⁻¹ s⁻¹, the Kd (VEGF-C [14]) was 0.00897 nM and the koff (VEGF-C [14]) was 3.88e-05 s⁻¹. For the same binder, the kon (VEGF-C [14]) was 4.32e+06 M⁻¹ s⁻¹, the Kd (VEGF-D [15]) was 2.28 nM and the koff (VEGF-D [15]) was 3.44e-05 s⁻¹. For the same binder, the kon (VEGF-D [15]) was 15100 M⁻¹ s⁻¹, the koff (PDGF-BB) was 0.00047 s⁻¹ and the kon (PDGF-BB) was 48200 M⁻¹ s⁻¹. The EC50 (VEGF-D [16]) was 270 nM, the EC50 (VEGF-C [17]) was 1150 nM and the EC50 (VEGF-A165 [18]) was 4670 nM. It also gave an EC50 (VEGF-C [19]) of 7.91 nM, an EC50 (VEGF-D [20]) of 1.13 nM and an EC50 (VEGF-A165 [21]) of 2.79 nM.
